# Measurements published in the supplement of paper PMC8728848.
# The other results are listed elsewhere or left out.
# B1: IRp60B (Homo sapiens), Q9UGN4-3 (protein)
# chain: MWLPWALLLLWVPAGDHSELSQNPKQAATQSELHYANLELLMWPLQEKPAPPREVEVEYSTVASPREELHYASVVFDSNTNRIAAQRPREEEPDSDYSVIRKT
# Assays:
# Assay in all cases: glycan array binding signal (z-score within array); higher = stronger binding
# Conditions in all cases: glycan notation: IUPAC condensed, linker removed
# [1] = target: Man(a1-2)Man(a1-2)Man(a1-6)[Man(a1-3)]Man
# In short: (§1)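 The Consortium for Functional Glycomics database supplied 3228 glycan arrays, of which those lacking an available protein sequence were dropped. The binding signal, a within-array Z-score, was averaged across arrays of the same protein sequence and across linkers. Negative scores can be read as non-binding.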
# Man(a1-2)Man(a1-3)Man = target: Man(a1-2)Man(a1-3)Man
# In short: as §1
# [2] = target: Man(a1-2)Man(a1-3)[Man(a1-2)Man(a1-6)]Man
# In short: as §1
# [3] = target: Man(a1-2)Man(a1-3)[Man(a1-2)Man(a1-6)]Man(a1-6)[Man(a1-2)Man(a1-2)Man(a1-3)]Man(b1-4)GlcNAc(b1-4)GlcNAc
# In short: as §1
# [4] = target: Man(a1-2)Man(a1-3)[Man(a1-2)Man(a1-6)]Man(a1-6)[Man(a1-3)[Man(a1-6)]Man(a1-6)]Man(b1-4)GlcNAc(b1-4)GlcNAc
# In short: as §1
# [5] = target: Man(a1-2)Man(a1-3)[Man(a1-6)]Man(a1-6)[Man(a1-2)Man(a1-3)]Man(b1-4)GlcNAc(b1-4)GlcNAc
# In short: as §1
# [6] = target: Man(a1-2)Man(a1-6)[Man(a1-3)]Man(a1-6)[Man(a1-2)Man(a1-2)Man(a1-3)]Man(b1-4)GlcNAc(b1-4)GlcNAc
# In short: as §1
# Man(a1-3)[Man(a1-6)]Man = target: Man(a1-3)[Man(a1-6)]Man
# In short: as §1
# [7] = target: Man(a1-3)[Man(a1-6)]Man(a1-6)[Man(a1-3)]Man(b1-4)GlcNAc(b1-4)GlcNAc
# In short: as §1
# Neu5Ac(a2-3)Gal = target: Neu5Ac(a2-3)Gal
# In short: as §1
# [8] = target: Neu5Ac(a2-3)Gal(b1-3)GalNAc
# In short: as §1
# [9] = target: Neu5Ac(a2-3)Gal(b1-3)GalNAc6S
# In short: as §1
# [10] = target: Neu5Ac(a2-3)Gal(b1-3)GlcNAc
# In short: as §1
# [11] = target: Neu5Ac(a2-3)Gal(b1-3)[Fuc(a1-4)]GlcNAc
# In short: as §1
# [12] = target: Neu5Ac(a2-3)Gal(b1-3)[Neu5Ac(a2-3)Gal(b1-4)]GlcNAc
# In short: as §1
# [13] = target: Neu5Ac(a2-3)Gal(b1-3)[Neu5Ac(a2-6)]GalNAc
# In short: as §1
# Neu5Ac(a2-3)Gal(b1-4)Glc = target: Neu5Ac(a2-3)Gal(b1-4)Glc
# In short: as §1
# [14] = target: Neu5Ac(a2-3)Gal(b1-4)GlcNAc
# In short: as §1
# [15] = target: Neu5Ac(a2-3)Gal(b1-4)GlcNAc(b1-3)Gal(b1-4)GlcNAc
# In short: as §1
# [16] = target: Neu5Ac(a2-3)Gal(b1-4)GlcNAc(b1-3)Gal(b1-4)GlcNAc(b1-3)Gal(b1-4)GlcNAc
# In short: as §1
# [17] = target: Neu5Ac(a2-3)Gal(b1-4)GlcNAc6S
# In short: as §1
# [18] = target: Neu5Ac(a2-3)Gal(b1-4)[Fuc(a1-3)]GlcNAc
# In short: as §1
# [19] = target: Neu5Ac(a2-3)Gal(b1-4)[Fuc(a1-3)]GlcNAc(b1-3)Gal
# In short: as §1
# [20] = target: Neu5Ac(a2-3)Gal(b1-4)[Fuc(a1-3)]GlcNAc(b1-3)Gal(b1-4)GlcNAc
# In short: as §1
# [21] = target: Neu5Ac(a2-3)Gal(b1-4)[Fuc(a1-3)]GlcNAc(b1-3)Gal(b1-4)[Fuc(a1-3)]GlcNAc(b1-3)Gal(b1-4)[Fuc(a1-3)]GlcNAc
# In short: as §1
# [22] = target: Neu5Ac(a2-3)Gal(b1-4)[Fuc(a1-3)]GlcNAc6S
# In short: as §1
# [23] = target: Neu5Ac(a2-3)Gal6S(b1-4)GlcNAc
# In short: as §1
# Neu5Ac(a2-3)GalNAc = target: Neu5Ac(a2-3)GalNAc
# In short: as §1
# [24] = target: Neu5Ac(a2-3)[GalNAc(b1-4)]Gal(b1-4)Glc
# In short: as §1
# [25] = target: Neu5Ac(a2-3)[GalNAc(b1-4)]Gal(b1-4)GlcNAc
# In short: as §1
# [26] = target: Neu5Ac(a2-3)[Neu5Ac(a2-6)]GalNAc
# In short: as §1
# Neu5Ac(a2-6)Gal = target: Neu5Ac(a2-6)Gal
# In short: as §1
# Neu5Ac(a2-6)Gal(b1-4)Glc = target: Neu5Ac(a2-6)Gal(b1-4)Glc
# In short: as §1
# [27] = target: Neu5Ac(a2-6)Gal(b1-4)GlcNAc
# In short: as §1
# [28] = target: Neu5Ac(a2-6)Gal(b1-4)GlcNAc(b1-3)Gal(b1-4)GlcNAc
# In short: as §1
# [29] = target: Neu5Ac(a2-6)Gal(b1-4)GlcNAc(b1-3)Gal(b1-4)[Fuc(a1-3)]GlcNAc(b1-3)Gal(b1-4)[Fuc(a1-3)]GlcNAc
# In short: as §1
# [30] = target: Neu5Ac(a2-6)Gal(b1-4)GlcNAc6S
# In short: as §1
# Neu5Ac(a2-6)GalNAc = target: Neu5Ac(a2-6)GalNAc
# In short: as §1
# Neu5Ac(a2-8)Neu5Ac = target: Neu5Ac(a2-8)Neu5Ac
# In short: as §1
# [31] = target: Neu5Ac(a2-8)Neu5Ac(a2-3)Gal(b1-4)Glc
# In short: as §1
# [32] = target: Neu5Ac(a2-8)Neu5Ac(a2-3)[GalNAc(b1-4)]Gal(b1-4)Glc
# In short: as §1
# [33] = target: Neu5Ac(a2-8)Neu5Ac(a2-8)Neu5Ac
# In short: as §1
# [34] = target: Neu5Ac(a2-8)Neu5Ac(a2-8)Neu5Ac(a2-3)Gal(b1-4)Glc
# In short: as §1
# [35] = target: Neu5Ac(a2-8)Neu5Ac(a2-8)Neu5Ac(a2-3)[GalNAc(b1-4)]Gal(b1-4)Glc
# In short: as §1
# Neu5Ac(b1-6)GalNAc = target: Neu5Ac(b1-6)GalNAc
# In short: as §1
# [36] = target: Neu5Ac(b2-6)Gal(b1-4)GlcNAc
# In short: as §1
# [37] = target: Neu5Ac9Ac(a2-6)Gal(b1-4)GlcNAc
# In short: as §1
# [38] = target: Neu5Gc(a2-3)Gal(b1-3)GlcNAc
# In short: as §1
# [39] = target: Neu5Gc(a2-3)Gal(b1-3)[Fuc(a1-4)]GlcNAc
# In short: as §1
# Neu5Gc(a2-3)Gal(b1-4)Glc = target: Neu5Gc(a2-3)Gal(b1-4)Glc
# In short: as §1
# [40] = target: Neu5Gc(a2-3)Gal(b1-4)GlcNAc
# In short: as §1
# [41] = target: Neu5Gc(a2-3)Gal(b1-4)[Fuc(a1-3)]GlcNAc
# In short: as §1
# [42] = target: Neu5Gc(a2-6)Gal(b1-4)GlcNAc
# In short: as §1
# Neu5Gc(a2-6)GalNAc = target: Neu5Gc(a2-6)GalNAc
# In short: as §1
binder,measurement,setting,value
B1,glycan array binding signal (z-score),[1],-0.361
same,glycan array binding signal (z-score),Man(a1-2)Man(a1-3)Man,-0.452
same,glycan array binding signal (z-score),[2],-0.434
same,glycan array binding signal (z-score),[3],-0.264
same,glycan array binding signal (z-score),[4],-0.447
same,glycan array binding signal (z-score),[5],-0.364
same,glycan array binding signal (z-score),[6],-0.462
same,glycan array binding signal (z-score),Man(a1-3)[Man(a1-6)]Man,-0.218
same,glycan array binding signal (z-score),[7],-0.408
same,glycan array binding signal (z-score),Neu5Ac(a2-3)Gal,0.534
same,glycan array binding signal (z-score),[8],-0.469
same,glycan array binding signal (z-score),[9],-0.231
same,glycan array binding signal (z-score),[10],-0.429
same,glycan array binding signal (z-score),[11],-0.134
same,glycan array binding signal (z-score),[12],-0.446
same,glycan array binding signal (z-score),[13],-0.392
same,glycan array binding signal (z-score),Neu5Ac(a2-3)Gal(b1-4)Glc,-0.363
same,glycan array binding signal (z-score),[14],-0.31
same,glycan array binding signal (z-score),[15],-0.293
same,glycan array binding signal (z-score),[16],0.224
same,glycan array binding signal (z-score),[17],-0.358
same,glycan array binding signal (z-score),[18],-0.444
same,glycan array binding signal (z-score),[19],-0.494
same,glycan array binding signal (z-score),[20],-0.427
same,glycan array binding signal (z-score),[21],0.156
same,glycan array binding signal (z-score),[22],-0.476
same,glycan array binding signal (z-score),[23],-0.352
same,glycan array binding signal (z-score),Neu5Ac(a2-3)GalNAc,3.17
same,glycan array binding signal (z-score),[24],-0.323
same,glycan array binding signal (z-score),[25],-0.259
same,glycan array binding signal (z-score),[26],-0.201
same,glycan array binding signal (z-score),Neu5Ac(a2-6)Gal,-0.304
same,glycan array binding signal (z-score),Neu5Ac(a2-6)Gal(b1-4)Glc,0.954
same,glycan array binding signal (z-score),[27],-0.273
same,glycan array binding signal (z-score),[28],-0.377
same,glycan array binding signal (z-score),[29],1.2
same,glycan array binding signal (z-score),[30],-0.449
same,glycan array binding signal (z-score),Neu5Ac(a2-6)GalNAc,-0.462
same,glycan array binding signal (z-score),Neu5Ac(a2-8)Neu5Ac,-0.306
same,glycan array binding signal (z-score),[31],-0.458
same,glycan array binding signal (z-score),[32],-0.458
same,glycan array binding signal (z-score),[33],-0.355
same,glycan array binding signal (z-score),[34],1.18
same,glycan array binding signal (z-score),[35],-0.469
same,glycan array binding signal (z-score),Neu5Ac(b1-6)GalNAc,-0.432
same,glycan array binding signal (z-score),[36],-0.483
same,glycan array binding signal (z-score),[37],0.049
same,glycan array binding signal (z-score),[38],-0.475
same,glycan array binding signal (z-score),[39],-0.41
same,glycan array binding signal (z-score),Neu5Gc(a2-3)Gal(b1-4)Glc,-0.391
same,glycan array binding signal (z-score),[40],2.84
same,glycan array binding signal (z-score),[41],-0.107
same,glycan array binding signal (z-score),[42],-0.292
same,glycan array binding signal (z-score),Neu5Gc(a2-6)GalNAc,0.328
